Results taken from article PMC4336329 (PLoS ONE, 2015).
In all, about 310,000 compounds went through this assay and about 14,000 (4.5%) showed an effect of 50% or more. Effects have a minus sign here. Some of the results follow.

Target: human ether-à-go-go-related gene (hERG) potassium channel (human, UniProt Q12809)
Assay: primary screen, population patch clamp on CHO cells stably expressing hERG
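Also: peak tail current of the secondary pulse compared with the same well before compound.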

Chain of human ether-à-go-go-related gene (hERG) potassium channel (Q12809 whole entry, looked up): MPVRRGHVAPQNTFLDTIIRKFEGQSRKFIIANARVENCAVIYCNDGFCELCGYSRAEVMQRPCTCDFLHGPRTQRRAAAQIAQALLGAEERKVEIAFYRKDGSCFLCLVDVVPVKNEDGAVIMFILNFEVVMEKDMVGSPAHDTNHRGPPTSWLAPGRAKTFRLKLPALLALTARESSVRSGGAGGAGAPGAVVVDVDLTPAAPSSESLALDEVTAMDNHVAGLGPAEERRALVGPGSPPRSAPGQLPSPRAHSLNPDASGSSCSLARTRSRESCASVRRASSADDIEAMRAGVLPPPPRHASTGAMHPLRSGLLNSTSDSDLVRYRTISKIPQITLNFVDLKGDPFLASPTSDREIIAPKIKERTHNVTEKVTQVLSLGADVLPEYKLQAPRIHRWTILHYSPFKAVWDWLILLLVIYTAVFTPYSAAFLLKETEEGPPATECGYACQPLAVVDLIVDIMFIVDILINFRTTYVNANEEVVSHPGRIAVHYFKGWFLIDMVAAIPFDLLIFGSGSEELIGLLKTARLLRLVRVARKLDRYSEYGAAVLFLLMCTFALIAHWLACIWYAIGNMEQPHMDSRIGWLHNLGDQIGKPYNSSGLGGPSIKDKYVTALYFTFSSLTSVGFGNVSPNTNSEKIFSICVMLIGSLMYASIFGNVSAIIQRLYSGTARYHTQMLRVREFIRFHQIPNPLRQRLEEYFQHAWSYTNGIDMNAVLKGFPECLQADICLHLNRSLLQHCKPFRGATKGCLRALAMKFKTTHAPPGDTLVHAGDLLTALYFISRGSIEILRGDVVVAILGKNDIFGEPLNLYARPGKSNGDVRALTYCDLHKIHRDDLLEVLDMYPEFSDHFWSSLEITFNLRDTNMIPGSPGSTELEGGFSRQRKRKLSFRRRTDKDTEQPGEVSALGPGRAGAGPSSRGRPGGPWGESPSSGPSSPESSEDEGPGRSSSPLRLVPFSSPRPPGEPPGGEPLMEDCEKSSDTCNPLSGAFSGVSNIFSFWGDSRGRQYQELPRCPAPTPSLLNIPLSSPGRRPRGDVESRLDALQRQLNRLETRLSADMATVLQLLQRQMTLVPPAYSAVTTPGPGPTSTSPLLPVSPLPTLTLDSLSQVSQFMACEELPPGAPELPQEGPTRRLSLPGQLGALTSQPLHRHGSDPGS

| Structure (SMILES) | hERG current change (%, negative = inhibition) at 10uM [%] |
| --- | --- |
| COC(=O)c1ccc(NC(=O)CN2C(=O)CCC2=O)cc1 | 9.66 |
| CCCNC(=O)c1sc2c(c1C(=O)Nc1ccccn1)CCCC2 | 0.34 |
| COc1ccc(C(CC(=O)O)NS(=O)(=O)c2ccc3c(c2)N(C(C)=O)CC(C)O3)cc1 (centres unmarked) | 16.8 |
| CCn1nc(C)c(CN2CCCC(CO)(Cc3ccccc3)C2)c1C (centres unmarked) | -7.7 |
| CC(OC(=O)c1ccc(Cl)c(S(=O)(=O)N2CCCC2)c1)C(=O)NC1CCCCC1C (centres unmarked) | -6.43 |
| Cc1cccc(NC(=O)CCc2c(C)nc3ncnn3c2C)n1 | -2.61 |
| Cc1cccc(-n2c(Cc3cc(=O)[nH]c(=O)[nH]3)nnc2SCC(=O)NCc2ccco2)c1 | -1.03 |
| COc1ccc(OC)c(C(=O)c2ccc(Cl)cc2)c1 | -13.5 |
| CCCCC1=CC2=CC(=O)C(C)(OC(=O)c3ccc(Cl)nc3)C(=O)C2=CO1 (centres unmarked) | 7.18 |
| CC(=O)c1ccc(-c2nnc(CCC(=O)N(C)Cc3cccc4cnccc34)o2)s1 | -81.4 |
| CN(Cc1cc([N+](=O)[O-])ccc1Cl)C(=O)C[n+]1ccccc1.[Cl-] | 24 |
| Cc1noc(C)c1CSCC(=O)Nc1cc(C(F)(F)F)ccc1N1CCOCC1 | -37.9 |
| CCOC(=O)N1CCN(C(=O)c2cc3c(-c4ccc(Cl)cc4)nn(C)c3s2)CC1 | -34.1 |
| CSc1nc(C(=O)N2CCc3c([nH]c4ccccc34)C2c2ccccn2)cs1 (centres unmarked) | -4.85 |
| COc1ccc(C(=O)CCC(=O)N2CCN(c3ccccc3)CC2)cc1 | -9.62 |
| CC(C)Cn1c(=O)c(C(=O)Nc2ccccc2S(N)(=O)=O)c(O)c2ccccc21 | -11.2 |
| Cc1cc(C)c(C#N)c(Oc2ccccc2Br)n1 | 3.63 |
| Cc1nn(CC(=O)NNC(=O)c2ccccc2F)c([N+](=O)[O-])c1Br | -6.91 |
| CCOc1ccc(OCc2cccc(C(=O)N/N=C/c3cccnc3)c2)cc1 | -17.1 |
| COc1ccc(N2CCN(Cc3cc(=O)oc4ccc(Cl)cc34)CC2)cc1 | 12.9 |
| COc1cccc(C(=O)C2CCCN(Cc3cccc(-n4nc(C)cc4C)c3)C2)c1 (centres unmarked) | -59.4 |
| COc1ccc(-c2nnc(NC(=O)c3ccccc3[N+](=O)[O-])s2)c(OC)c1 | -15.1 |
| Cc1nn(-c2cc(C)c3ccccc3n2)c2c1C1C(C2)C1(C)C (centres unmarked) | 12.6 |
